Some of the results follow.

The test concerns S. aureus RN4220. Description: growth inhibition call (relative growth <= 0.2). Conditions: 50 µM.
Turning to `CCS(=O)(=O)NCC[C@H]1CC[C@@H](NS(=O)(=O)c2ccccc2C)[C@H](CO)O1`, the growth inhibition call was “inactive”.

In the case of `C[C@@H]1CN([C@@H](C)CO)C(=O)Cc2cc(NS(=O)(=O)c3cn(C)cn3)ccc2O[C@@H]1CN(C)S(=O)(=O)c1cn(C)cn1`, the growth inhibition call was “inactive”. The value for `COc1ccc(S(=O)(=O)Nc2cccc3c2O[C@@H](CN(C)Cc2ccc(-c4ccccc4)cc2)[C@@H](C)CN([C@@H](C)CO)C3=O)cc1` was “inactive”; that for `CC(C)=CCC/C(C)=C/CC1=C(C)C(=O)c2ccccc2C1=O` was “inactive”; that for `CN1C(=O)Cc2ccccc2C1=O` was “inactive”. On to `CO[C@@H](CN(C)C(=O)c1ccc2c(c1)OCO2)[C@H](C)CN([C@@H](C)CO)S(=O)(=O)c1ccc(Cl)cc1`, for which the growth inhibition call is “inactive”.

For `CN(C)CCOC(C)(c1ccccc1)c1ccccn1.O=C(O)CCC(=O)O` (stereo not given), the growth inhibition call is “inactive”. As to `O=C(O)[C@@H]1C[C@H](C(F)(F)F)CN1`, the growth inhibition call was “inactive”. Take `COc1ccc(S(=O)(=O)N(C)C[C@H]2Oc3ccc(NS(=O)(=O)c4ccccc4)cc3CC(=O)N([C@@H](C)CO)C[C@H]2C)cc1`: the growth inhibition call is “inactive”. The result for `Cc1noc(C)c1NC(=O)Nc1ccc2c(c1)C(=O)N([C@H](C)CO)C[C@H](C)[C@@H](CN(C)C(=O)Nc1cccc3ccccc13)O2` reads “inactive”. The result for `C[C@@H]1CN([C@H](C)CO)C(=O)c2cc(NC(=O)c3ccncc3)ccc2O[C@@H](C)CCCCO[C@H]1CN(C)S(=O)(=O)c1cn(C)cn1` reads “inactive”. Regarding `C[C@H](CO)N1C[C@H](C)[C@@H](CN(C)Cc2ccc(Cl)c(Cl)c2)OCCCC[C@H](C)Oc2ccc(NC(=O)Nc3ccccc3)cc2C1=O`, the growth inhibition call is “inactive”. As for `CC(C)NC(=O)N(C)C[C@@H]1Oc2cc(C#Cc3cccc(F)c3)ccc2S(=O)(=O)N([C@@H](C)CO)C[C@H]1C`, the growth inhibition call is “inactive”. The value for `C[C@H](CO)N1C[C@H](C)[C@@H](CN(C)Cc2ccc(C(F)(F)F)cc2)OCCCC[C@H](C)Oc2ccc(NC(=O)Nc3cccc4ccccc34)cc2C1=O` was “inactive”; that for `COCC(=O)N(C)C[C@@H]1Oc2cc(C#Cc3cccnc3)ccc2S(=O)(=O)N([C@@H](C)CO)C[C@H]1C` was “inactive”. Consider `N[C@@H]1CC[C@H](CCn2cc(C3CC3)nn2)O[C@@H]1CO`, for which the growth inhibition call is “inactive”. For the compound `CN(C)CCCN1c2ccccc2Sc2ccccc21.Cl`, the growth inhibition call is “inactive”. The value for `O=C(NO)c1cccc(C(=O)N/N=C/[C@H](O)[C@@H](O)[C@H](O)[C@H](O)CO)c1` was “inactive”. The value for `C[C@H]1CN([C@@H](C)CO)C(=O)c2cc(NC(=O)C3CC3)ccc2O[C@H]1CN(C)S(=O)(=O)c1ccccc1` was “inactive”; that for `Cc1noc(C)c1S(=O)(=O)N(C)C[C@H]1OCCCC[C@H](C)Oc2ccc(N(C)C)cc2C(=O)N([C@@H](C)CO)C[C@@H]1C` was “inactive”; that for `Cc1ccc(S(=O)(=O)Nc2ccc3c(c2)CC(=O)N([C@@H](C)CO)C[C@@H](C)[C@@H](CN(C)C(=O)Nc2ccc(C(F)(F)F)cc2)O3)cc1` was “inactive”. In the case of `Cc1noc(C)c1S(=O)(=O)N(C)C[C@H]1OCCCC[C@@H](C)Oc2ccc(NC(=O)Nc3ccccc3)cc2C(=O)N([C@H](C)CO)C[C@@H]1C`, the growth inhibition call is “inactive”. The result for `COc1ccc2c3c([nH]c2c1)[C@H](CO)N(C[C@]13CCN(CC1)S(=O)(=O)c1ccccc1)C(=O)c1cnccn1` reads “inactive”; that for `COCC#Cc1cnc2c(c1)C(=O)N([C@H](C)CO)C[C@H](C)[C@@H](CN(C)S(=O)(=O)c1cn(C)cn1)O2`, “inactive”.

Turning to `C[C@H]1CN([C@@H](C)CO)C(=O)c2cccc(NC(=O)Nc3cccc4ccccc34)c2O[C@H]1CN(C)C(=O)Nc1ccc(C(F)(F)F)cc1`, the growth inhibition call is “inactive”.

In the case of `COc1ccc(CN(C)C[C@@H]2OCCCC[C@@H](C)Oc3ccc(NS(=O)(=O)c4ccc(Cl)cc4)cc3C(=O)N([C@@H](C)CO)C[C@@H]2C)cc1`, the growth inhibition call is “inactive”. The result for `COC(=O)c1cn(CC(=O)Nc2ccon2)nn1` reads “inactive”; that for `CN1CCN(S(=O)(=O)c2ccc(CN)cc2)CC1`, “inactive”; that for `Cc1ccc(S(=O)(=O)N(C)C[C@@H]2OCCCC[C@H](C)Oc3ccc(NC(=O)Nc4ccc5c(c4)OCO5)cc3C(=O)N([C@@H](C)CO)C[C@H]2C)cc1`, “inactive”. The result for `C[C@H]1CC/C=C\[C@H]2O[C@@]34C=CCN(CCN5CCOCC5)C(=O)[C@H]3N(CCO)C(=O)[C@@H]4[C@@H]2C(=O)O1` reads “inactive”; that for `CO[C@H]1CN(C)C(=O)c2cc(NC(=O)C3CC3)ccc2OC[C@@H](C)N(C(=O)Cc2ccccn2)C[C@H]1C`, “inactive”; that for `C[C@@H]1CN([C@@H](C)CO)C(=O)c2cccc(NS(=O)(=O)c3ccc(F)cc3)c2O[C@@H]1CN(C)Cc1ccncc1`, “inactive”. The value for `COc1ccc(-c2oc3cc(OC)c(OC)c(OC)c3c(=O)c2OC)cc1` was “inactive”.

Regarding `CCOC(=O)C(CCc1ccccc1)NC1CCc2ccccc2N(CC(=O)O)C1=O.Cl` (stereo not given), the growth inhibition call was “inactive”. As to `C[C@H](CO)N1C[C@H](C)[C@@H](CN(C)CC2CCCCC2)Oc2c(NC(=O)Nc3ccc(F)cc3)cccc2C1=O`, the growth inhibition call was “inactive”. Regarding `C[C@H]1CCCCO[C@@H](CN(C)Cc2ccc(C(=O)O)cc2)[C@@H](C)CN([C@@H](C)CO)C(=O)c2cc(NC(=O)c3ccccc3)ccc2O1`, the growth inhibition call was “inactive”.

`CCCNC(=O)N1C[C@H](O)COC[C@@H]2O[C@H](CC(=O)NCCCN3CCOCC3)CC[C@H]21`: the growth inhibition call was “inactive”.

Consider `CCCc1cc(C(N)=S)ccn1`, for which the growth inhibition call is “inactive”. The result for `CN(C)CCO[C@@H]1C[C@@H]2CN(S(=O)(=O)c3cn(C)cn3)CCN2C1` reads “inactive”; that for `Cc1noc(C)c1S(=O)(=O)Nc1ccc2c(c1)CC(=O)N([C@H](C)CO)C[C@@H](C)[C@H](CN(C)S(=O)(=O)c1cn(C)cn1)O2`, “inactive”.
